From PubChem BioAssay AID1963872 (Molecular Pharmacology Branch, DTP, NCI, 2024)
Some entries of the source have several records that differ or are many. Only these are listed. There may be further records. Values given together are repeated measurements across runs, samples, wells, individuals or studies. Marks such as (2×) say how often a value occurs here.

Test system: KRAS patient-derived spheroids with HUVEC/MSC, viability
Assay: Anticancer human tumor 519858-162-T-J1-PDC patient-derived colon adenocarcinoma cell line growth inhibition [KRAS2]
Conditions: for IC50: compound alone; for viability, T/C: stronger effect = lower value
Excerpt: Multicellular complex tumor spheroid response to RAS pathway inhibitors in combination with a targeted agents in patient-derived cell lines with oncogenic KRAS variants from multiple cancer types
A high-throughput screen of multi-cell type tumor spheroids was designed to identify active combinations of targeted small molecules and KRAS pathway inhibitors. Complex spheroids include a stromal component modeled by human endothelial cells (HUVEC) and fibroblasts modeled by human mesenchymal stem cells (MSCs). The concentration ranges selected for each drug and investigational agent were based upon clinically achievable concentrations if the clinical Cmax of the agent was known.
Compounds. The drugs and investigational agents: BI-3406 (NSC825286), BAY-293 (NSC824723), batoprotafib (TNO155; NSC825523), sotorasib (AMG 510; NSC818433), MRTX1257 (NSC819558), elimusertib (BAY 1895344; NSC800525), molibresib (GSK525762; NSC774829), temuterkib (LY3214996; NSC803410), venetoclax (NSC766270), alisertib (NSC759677), olaparib (NSC753686), talazoparib (NSC767125), erdafitinib (NSC781556), ipatasertib (NSC767898), cabozantinib (NSC761068), nintedanib (NSC756659), abemaciclib (NSC768073), docetaxel (NSC628503), trametinib (NSC758246), and sapanisertib (NSC764658) were obtained from the National Cancer Institute (NCI) Developmental Therapeutics Program Chemical Repository. The FDA-approved anticancer drug set is available from the Developmental Therapeutics Program. […] The stock solutions were prepared in dimethyl sulfoxide (DMSO, Sigma-Aldrich, St. Louis, MO, cat. D2650) at 800-fold the tested concentration and stored at -70 degrees C prior to their use. All drugs and investigational agents were tested over a range starting from a high concentration at or near the clinical Cmax and decreasing in half-log increments. If the clinical Cmax for an agent had not been determined, the highest concentration tested was 10 microM.
Cell Culture. All cells were maintained in an incubator at 37 degrees C and 5% CO2 with 95% humidity. The PDC lines were cultured according to standard operating procedures established by the NCI PDMR (https://pdmr.cancer.gov/sops/default.htm). Briefly, all PDCs were thawed and cultured in Matrigel-coated flasks prepared with a working solution of 1X Ham's F-12 nutrient mix, without supplementation (Invitrogen, Waltham, MA, cat. 11765054), 100 U/mL penicillin-streptomycin (Invitrogen, cat. 15140122), and 2.5% Matrigel (Corning Inc., Corning, NY, cat. 354248) for the first three passages. All PDCs were cultured in complete DMEM/F-12 media containing advanced DMEM/F-12 (Invitrogen, cat. 12634028), 4.9% defined fetal bovine serum, heat inactivated (HyClone Laboratories Inc., Logan, UT, cat. SH30070.03HI), 389 ng/mL hydrocortisone (Sigma-Aldrich, cat. H4001), 9.7 ng/mL human EGF recombinant protein (Invitrogen, cat. PHG0313), 23.4 microg/mL adenine (Sigma-Aldrich, cat. A2786), 97.3 U/mL penicillin-streptomycin (Invitrogen, cat. 15140122), 1.9 mM L-glutamine (Invitrogen, cat. 25030081), and 9.7 microM Y-27632 dihydrochloride (Tocris Bioscience, Bristol, United Kingdom, cat. 1254). The PDCs were cultured in complete DMEM/F12 media without 9.7 microM Y-27632 dihydrochloride for at least two passages prior to the screen. The established cell line HOP-62 was cultured in RPMI 1640 medium, HEPES (Invitrogen, cat. 22400105) with 10% defined fetal bovine serum (HyClone Laboratories Inc., cat. SH30070.03) and 2 mM L-glutamine (Invitrogen, cat. 25030081). The pooled donor HUVEC were cultured in endothelial cell growth medium 2 (PromoCell, Heidelberg, Germany, cat. C-22011) and the hMSC were cultured in mesenchymal stem cell growth medium 2 (PromoCell, cat. C-28009). For all experiments, HUVEC and hMSC were used at passages </=5, while the malignant cell lines were used at passages </=15. […]
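Note: compound exposure lasted seven days before readout.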
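Throughout, for viability, T/C: 100% = DMSO vehicle control viability.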

Compound	IC50	viability, T/C (compound alone 0.0316 µM)	viability, T/C (compound alone 0.1 µM)	viability, T/C (compound alone 0.316 µM)	viability, T/C (compound alone 1 µM)	viability, T/C (compound alone 3.16 µM)	viability, T/C (compound alone 10 µM)	IC50 (run of 07/12/2021)
COc1cc(OC)cc(N(CCNC(C)C)c2ccc3ncc(-c4cnn(C)c4)nc3c2)c1	> 10 µM and 722 nM	92.9, 93.1, 72.4, 88, 98.9%	71.9, 106, 61.7, 95.5, 111%	93.5, 87.1, 74.3, 103, 105%	82.1, 115, 95.1, 20.7, 80.8%	99.5, 96.6, 123, 53.8, 106%	71.4, 69.3, 57, 21.8, 85.2%	
Cn1nccc1Nc1nccc(-c2cc3c(s2)C(C)(C)N(CCN2CCOCC2)C3=O)n1	5.33, 4.31, 6.07, 4.83, 1.13 µM					77.8, 58.6, 68.4, 63.7, 47.6%		
CNCc1ccccc1-c1csc(C(C)Nc2nc(C)nc3cc(OC)c(OC)cc23)c1 (configuration not stated)			62.5, 64.2, 89.8, 87, 69.2, 90.8, 85.4, 88.2, 87.4, 69.8, 89.5, 73.9, 85.7, 66.2, 81.5, 85, 90.3%	75.8, 86.6, 73.6, 78.6, 85.3, 86.7, 98.6, 82.5, 79.9, 80, 77.4, 67.7, 72.7, 64.2, 98.8, 85.9, 76.5%	74.2, 71.9, 105, 87.4, 88.6, 83.6, 82.3, 72.2, 63.4, 89.5, 71.3, 72, 64.8, 53.4, 70.8, 77.8, 65.4%	78.7, 76, 69, 73.6, 59.7, 67.2, 35.6, 63.5, 45.2, 70, 65.7, 49.9, 38.8, 50.8, 51.6, 42, 55%	79.5, 0.37, 0.72, 0.66, 0.41, 0.4 (2×), 0.35, 0.61, 0.38, 0.59, 2.48, 0.99, 18.9, 0.19, 0.68, 12.9%	> 10 µM, 4.64 µM, 4.36 µM, 4.59 µM, 3.82 µM, 4.23 µM
CCN1CCN(Cc2ccc(Nc3ncc(F)c(-c4cc(F)c5nc(C)n(C(C)C)c5c4)n3)nc2)CC1		81.9, 90.5, 65.3, 69.2, 85.5%						
CC(=O)OC12COC1CC(O)C1(C)C(=O)C(O)C3=C(C)C(OC(=O)C(O)C(NC(=O)OC(C)(C)C)c4ccccc4)CC(O)(C(OC(=O)c4ccccc4)C21)C3(C)C (configuration not stated)		98.8, 73.3, 87.5, 95, 102%		114, 94.6, 100, 123, 126%	64.1, 87.8, 72.2, 89.3, 85.5%			
C=CC(=O)N1CCN(c2nc(OCC3CCCN3C)nc3c2CCN(c2cccc4cccc(C)c24)C3)CC1CC#N (configuration not stated)		122, 96.5, 79.7, 98.5, 66.6, 103, 84, 95.5, 94.9, 58.5, 93.1, 101, 96.2, 73.6, 76.1, 81.2, 84.2%	93.5, 77.2, 98.4, 77.4, 69.9, 85.3, 73.7, 85.8, 78.2, 97.3, 76.2, 85, 88.5, 66.4, 90, 76.1, 105%	75.5, 96.7, 108, 89.8, 67.3, 100, 105, 85.2, 67.9, 66.1, 72.1, 71.5, 89.2, 64.1, 81.8, 66.3, 86.7%	78.2, 95.4, 84.7, 69.5, 53.2, 90.9, 55.8, 91.9, 82.4, 82.6, 65, 71.2, 75.2, 87.1, 84.4, 83.6, 72.2%	83.8, 98.9, 84.4, 54.5, 65.2, 81.6, 76.7, 56.2, 68.4, 61.4, 66.5, 74.4, 67.2, 39.6, 55.5, 70.8, 75%		
COc1cc(Nc2ncc3c(n2)-c2ccc(Cl)cc2C(c2c(F)cccc2OC)=NC3)ccc1C(=O)O		101, 104, 73.1, 97.5, 96.4%		90.8, 104, 81.5, 70.1, 85.8%	86.6, 74, 92.6, 83.2, 56.9%	105, 101, 65.5, 113, 73.6%	112, 119, 105, 88.6, 69.9%	
CC(C)NCC(C(=O)N1CCN(c2ncnc3c2C(C)CC3O)CC1)c1ccc(Cl)cc1 (configuration not stated)		90.1, 84.8, 83.6, 108, 76.5%	108, 90.7, 102, 93.3, 68.1%			82.6, 87.2, 91.1, 49.5, 81.2%		
CC1COCCN1c1cc(-c2ccnn2C)c2ccnc(-c3ccn[nH]3)c2n1 (configuration not stated)	2.45 µM, 1.3 µM, 1.91 µM, > 3.16 µM, 2.36 µM		86.7, 67.2, 81.2, 62.8, 101%	101, 77.9, 86.3, 59.5, 74.9%	67.3, 50.6, 69.6, 30.1, 66.7%	45.1, 37.2, 34.7, 66.9, 44.5%		
